First the molecules themselves.
B1: Caulobacter ParB omega fusion; a variant is named by its letters at X, in order, B8GW30 (parent)
chain: MESVVVGEPGMSEGRRGLGRGLSALLGEVDAAPAQAPGEQLGGSREAPIEILQRNPDQPRRTFREEDLEDLSNSIREKGVLQPILVRPSPDTAGEYQIVAGERAWRAAQRAGLKTVPIMVRELDDLAVLEIGIIENVQRADLNVLEEALSYKVLMEKFERTQENIAQTIGKSXSHVANXMRLLXLPDEVQSYLVSGELTAXHARAIAAAADPVALAKQIIEGGLSVRETEALARKAPNLSAGKSKGGRPPRVKDTDTQALESDLSSVLGLDVSIDHRGSTGTLTITYATLEQLDDLCNRLTRGI

Over roughly 81,000 sequences, “one-hybrid fitness for binding NBS DNA” has its median near -0.1; the highest 2% begin near 0.36. This is one part of the list.

This experiment covers variants of B1. Description: one-hybrid fitness for binding NBS DNA (the Noc-binding site; scaled: cognate 1, non-cognate 0); higher = stronger binding. As to conditions: with NBS DNA site. Put shortly:
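Pre- and post-selection plasmids were Illumina-sequenced, three replicate libraries were pooled, and any variant with under 10 reads was removed. The libraries were Caulobacter ParB with four specificity codons randomised, selected in E. coli USO through a HIS3 reporter whose site is 19 bp from the promoter. Cells grew 48 hours at 37°C on M9 without histidine, with 0.1 mM IPTG and 5 mM 3-AT. Fitness is the log change in variant-to-wild-type read ratio, rescaled against cognate and non-cognate.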
Take QCIC: the “one-hybrid fitness for binding NBS DNA” value is ≤ 0.2.

With AHSQ, the “one-hybrid fitness for binding NBS DNA” value was ≤ 0.2.

On to YWRR, for which the “one-hybrid fitness for binding NBS DNA” value is ≤ 0.2.

On to TQHG, for which the “one-hybrid fitness for binding NBS DNA” value was ≤ 0.2.

Consider TFLE, for which the “one-hybrid fitness for binding NBS DNA” value is ≤ 0.2.

For the variant KFYV, the “one-hybrid fitness for binding NBS DNA” value is ≤ 0.2.

For the variant SLCQ, the “one-hybrid fitness for binding NBS DNA” value is ≤ 0.2.

Take QPNC: the “one-hybrid fitness for binding NBS DNA” value is ≤ 0.2.

AVWV: the “one-hybrid fitness for binding NBS DNA” value is ≤ 0.2.

As for RYCW, the “one-hybrid fitness for binding NBS DNA” value is ≤ 0.2.

Turning to INTG, the “one-hybrid fitness for binding NBS DNA” value was ≤ 0.2.

Consider HLRT, for which the “one-hybrid fitness for binding NBS DNA” value is ≤ 0.2.

For the variant ANSF, the “one-hybrid fitness for binding NBS DNA” value is ≤ 0.2.

Consider RHIS, for which the “one-hybrid fitness for binding NBS DNA” value was ≤ 0.2.

As for MIPN, the “one-hybrid fitness for binding NBS DNA” value was ≤ 0.2.

GYNS: the “one-hybrid fitness for binding NBS DNA” value is ≤ 0.2.

For the variant KFTS, the “one-hybrid fitness for binding NBS DNA” value is ≤ 0.2.

MVTQ: the “one-hybrid fitness for binding NBS DNA” value was ≤ 0.2.

As to SPLC, the “one-hybrid fitness for binding NBS DNA” value is ≤ 0.2.

Take IIHG: the “one-hybrid fitness for binding NBS DNA” value is ≤ 0.2.

For RMGY, the “one-hybrid fitness for binding NBS DNA” value is ≤ 0.2.

Turning to WRFL, the “one-hybrid fitness for binding NBS DNA” value was ≤ 0.2.

Take EASR: the “one-hybrid fitness for binding NBS DNA” value is ≤ 0.2.

With RYLQ, the “one-hybrid fitness for binding NBS DNA” value is ≤ 0.2.

QSFM: the “one-hybrid fitness for binding NBS DNA” value was ≤ 0.2.

As to DTCC, the “one-hybrid fitness for binding NBS DNA” value was ≤ 0.2.

Consider FGIS, for which the “one-hybrid fitness for binding NBS DNA” value was ≤ 0.2.

Consider TPIF, for which the “one-hybrid fitness for binding NBS DNA” value was ≤ 0.2.

As to ERRA, the “one-hybrid fitness for binding NBS DNA” value is ≤ 0.2.

As for QDAN, the “one-hybrid fitness for binding NBS DNA” value is ≤ 0.2.

With YNTR, the “one-hybrid fitness for binding NBS DNA” value is ≤ 0.2.

As to PGAR, the “one-hybrid fitness for binding NBS DNA” value is ≤ 0.2.

As for MQIS, the “one-hybrid fitness for binding NBS DNA” value was ≤ 0.2.

On to LQRF, for which the “one-hybrid fitness for binding NBS DNA” value is ≤ 0.2.

Consider RCWD, for which the “one-hybrid fitness for binding NBS DNA” value is ≤ 0.2.

Regarding IKWS, the “one-hybrid fitness for binding NBS DNA” value is ≤ 0.2.

As for YPHS, the “one-hybrid fitness for binding NBS DNA” value was ≤ 0.2.

KRGQ: the “one-hybrid fitness for binding NBS DNA” value is ≤ 0.2.

Regarding RLVN, the “one-hybrid fitness for binding NBS DNA” value is ≤ 0.2.

As to ERMC, the “one-hybrid fitness for binding NBS DNA” value is ≤ 0.2.

Take CPPC: the “one-hybrid fitness for binding NBS DNA” value was ≤ 0.2.

As for GEMI, the “one-hybrid fitness for binding NBS DNA” value was ≤ 0.2.

Take IVQV: the “one-hybrid fitness for binding NBS DNA” value is ≤ 0.2.

In the case of KMFR, the “one-hybrid fitness for binding NBS DNA” value was ≤ 0.2.

On to AWTA, for which the “one-hybrid fitness for binding NBS DNA” value is ≤ 0.2.

VLRK: the “one-hybrid fitness for binding NBS DNA” value was ≤ 0.2.

As to LNET, the “one-hybrid fitness for binding NBS DNA” value is ≤ 0.2.

For the variant RHPW, the “one-hybrid fitness for binding NBS DNA” value was ≤ 0.2.

As for ATHL, the “one-hybrid fitness for binding NBS DNA” value is ≤ 0.2.

As to KWPN, the “one-hybrid fitness for binding NBS DNA” value was ≤ 0.2.

Consider NYEV, for which the “one-hybrid fitness for binding NBS DNA” value is ≤ 0.2.

As to RSFQ, the “one-hybrid fitness for binding NBS DNA” value was ≤ 0.2.

RWQG: the “one-hybrid fitness for binding NBS DNA” value is ≤ 0.2.

Consider QQYK, for which the “one-hybrid fitness for binding NBS DNA” value is ≤ 0.2.

In the case of PRMF, the “one-hybrid fitness for binding NBS DNA” value is ≤ 0.2.

In the case of CTSE, the “one-hybrid fitness for binding NBS DNA” value was ≤ 0.2.

Consider GYQV, for which the “one-hybrid fitness for binding NBS DNA” value was ≤ 0.2.

Regarding HRAE, the “one-hybrid fitness for binding NBS DNA” value is ≤ 0.2.

DLAE: the “one-hybrid fitness for binding NBS DNA” value is ≤ 0.2.

Take HKLN: the “one-hybrid fitness for binding NBS DNA” value is ≤ 0.2.

Consider DSNN, for which the “one-hybrid fitness for binding NBS DNA” value is ≤ 0.2.

KRSP: the “one-hybrid fitness for binding NBS DNA” value was ≤ 0.2.

On to DSCR, for which the “one-hybrid fitness for binding NBS DNA” value was ≤ 0.2.

Consider SKNW, for which the “one-hybrid fitness for binding NBS DNA” value is ≤ 0.2.

Regarding FNSV, the “one-hybrid fitness for binding NBS DNA” value is ≤ 0.2.

In the case of AAGG, the “one-hybrid fitness for binding NBS DNA” value is ≤ 0.2.

Take PDSP: the “one-hybrid fitness for binding NBS DNA” value is ≤ 0.2.

Take VAGR: the “one-hybrid fitness for binding NBS DNA” value was ≤ 0.2.

In the case of HAYR, the “one-hybrid fitness for binding NBS DNA” value is ≤ 0.2.

SWQR: the “one-hybrid fitness for binding NBS DNA” value was ≤ 0.2.

In the case of AYCR, the “one-hybrid fitness for binding NBS DNA” value was ≤ 0.2.

On to LCHI, for which the “one-hybrid fitness for binding NBS DNA” value was ≤ 0.2.

Consider HSGS, for which the “one-hybrid fitness for binding NBS DNA” value is ≤ 0.2.

Take QSSE: the “one-hybrid fitness for binding NBS DNA” value is ≤ 0.2.

As for DLCS, the “one-hybrid fitness for binding NBS DNA” value is ≤ 0.2.

On to RVYC, for which the “one-hybrid fitness for binding NBS DNA” value is ≤ 0.2.

Turning to NVPR, the “one-hybrid fitness for binding NBS DNA” value is ≤ 0.2.

For the variant YMQL, the “one-hybrid fitness for binding NBS DNA” value is ≤ 0.2.

On to PHWG, for which the “one-hybrid fitness for binding NBS DNA” value is ≤ 0.2.

On to PVWV, for which the “one-hybrid fitness for binding NBS DNA” value is ≤ 0.2.

Consider APFR, for which the “one-hybrid fitness for binding NBS DNA” value is ≤ 0.2.

Consider GSER, for which the “one-hybrid fitness for binding NBS DNA” value is ≤ 0.2.

As to VNFP, the “one-hybrid fitness for binding NBS DNA” value was ≤ 0.2.

As to PEYV, the “one-hybrid fitness for binding NBS DNA” value was ≤ 0.2.

In the case of YANC, the “one-hybrid fitness for binding NBS DNA” value was ≤ 0.2.

For the variant LGHL, the “one-hybrid fitness for binding NBS DNA” value is ≤ 0.2.

Regarding VHMT, the “one-hybrid fitness for binding NBS DNA” value is ≤ 0.2.

With IPLI, the “one-hybrid fitness for binding NBS DNA” value was ≤ 0.2.

With HMLW, the “one-hybrid fitness for binding NBS DNA” value is ≤ 0.2.

Turning to PALQ, the “one-hybrid fitness for binding NBS DNA” value was ≤ 0.2.

Regarding KNSC, the “one-hybrid fitness for binding NBS DNA” value is ≤ 0.2.

GMHG: the “one-hybrid fitness for binding NBS DNA” value was ≤ 0.2.

Consider APVR, for which the “one-hybrid fitness for binding NBS DNA” value was ≤ 0.2.

Consider YMVT, for which the “one-hybrid fitness for binding NBS DNA” value is ≤ 0.2.

As for CVDC, the “one-hybrid fitness for binding NBS DNA” value was ≤ 0.2.

With GTNL, the “one-hybrid fitness for binding NBS DNA” value was ≤ 0.2.

Turning to SRTM, the “one-hybrid fitness for binding NBS DNA” value is ≤ 0.2.

For the variant MQSP, the “one-hybrid fitness for binding NBS DNA” value was ≤ 0.2.

For the origin of these results see a collection of fitness landscapes (doi:10.1016/j.celrep.2020.107928).
